# According to the supplement of paper PMC7826260:
# Some of the results follow. Each Rep nickase domain was tested in vitro on the same pool of single strands at 3 µM enzyme and 37 °C for 1 h; the strands have 90 letters, of which the middle is given. A value is the log2 ratio of uncut reads to the pool without enzyme; strong cutting gives strongly negative numbers. There is no active / inactive call. Reads are scaled to the total; uncut strands gain when others are lost, and binding without cutting may add a little.
# Tests used:
# Test in all cases: uncleaved DNA left, log2 of reads against the no-enzyme library (log2 ratio); higher = less cleavage (more negative = more Rep cleavage of the k-mer); sequences stand for … in CTCGTCCG…ACCGGAGA
# [1] = system: T1, Rep nickase domain of Muscovy duck circovirus
# T1 sequence (residues 1-111 of Rep, tag left off): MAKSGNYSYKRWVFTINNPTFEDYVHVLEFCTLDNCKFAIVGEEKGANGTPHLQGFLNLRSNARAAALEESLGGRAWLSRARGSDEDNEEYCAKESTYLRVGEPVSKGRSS
# Procedure: (§1)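 A pool of 90-nt single-stranded DNAs with seven random bases just before the constant AC of the nick site (name = the seven bases) was cut by 3 µM recombinant His6-SUMO-tagged Rep nickase domain (300 nM DNA, 50 mM HEPES pH 8.0, 50 mM NaCl, 1 mM MnCl2, 1 h, 37 °C, three replicates). Uncut DNA was amplified and sequenced.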
# [2] = system: T2, Rep nickase domain of banana bunchy top virus
# T2 sequence (residues 1-94 of Rep, tag left off): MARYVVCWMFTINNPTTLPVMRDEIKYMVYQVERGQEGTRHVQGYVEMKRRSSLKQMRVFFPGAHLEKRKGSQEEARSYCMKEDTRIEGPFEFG
# Procedure: as §1
# [3] = system: T3, Rep nickase domain of cabbage leaf curl virus
# T3 sequence (residues 1-116 of Rep, tag left off): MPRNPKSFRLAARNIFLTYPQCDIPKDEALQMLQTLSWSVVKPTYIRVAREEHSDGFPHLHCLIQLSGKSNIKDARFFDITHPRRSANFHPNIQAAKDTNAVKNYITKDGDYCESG
# Procedure: as §1
# [4] = system: T4, Rep nickase domain of chickpea chlorotic dwarf virus
# T4 sequence (residues 1-124 of Rep, tag left off): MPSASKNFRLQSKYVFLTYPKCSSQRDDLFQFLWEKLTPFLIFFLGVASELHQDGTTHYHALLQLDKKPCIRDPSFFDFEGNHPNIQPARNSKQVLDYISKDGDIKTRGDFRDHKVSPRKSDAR
# Procedure: as §1
# [5] = system: T5, Rep nickase domain of faba bean necrotic yellows virus
# T5 sequence (residues 1-98 of Rep, tag left off): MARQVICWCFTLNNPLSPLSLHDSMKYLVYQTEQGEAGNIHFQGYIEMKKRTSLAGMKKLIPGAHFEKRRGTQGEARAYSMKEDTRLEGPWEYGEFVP
# Procedure: as §1
# [6] = system: T6, Rep nickase domain of maize striate mosaic virus
# T6 sequence (residues 1-117 of Rep, tag left off): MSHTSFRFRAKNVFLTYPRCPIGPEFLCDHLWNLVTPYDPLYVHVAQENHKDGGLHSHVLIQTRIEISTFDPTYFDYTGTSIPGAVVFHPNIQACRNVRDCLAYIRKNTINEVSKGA
# Procedure: as §1
# [7] = system: T7, Rep nickase domain of porcine circovirus 2
# T7 sequence (residues 2-116 of Rep, tag left off): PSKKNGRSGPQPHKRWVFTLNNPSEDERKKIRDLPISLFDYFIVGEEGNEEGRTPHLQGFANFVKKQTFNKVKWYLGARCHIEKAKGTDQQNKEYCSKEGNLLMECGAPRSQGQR
# Procedure: as §1
# [8] = system: T8, Rep nickase domain of tomato golden mosaic virus
# T8 sequence (residues 1-124 of Rep, tag left off): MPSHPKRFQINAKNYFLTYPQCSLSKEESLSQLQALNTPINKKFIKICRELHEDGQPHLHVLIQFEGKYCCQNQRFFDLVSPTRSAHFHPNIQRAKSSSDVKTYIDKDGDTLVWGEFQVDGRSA
# Procedure: as §1
# [9] = system: T9, Rep nickase domain of tomato yellow leaf curl virus
# T9 sequence (residues 1-136 of Rep, tag left off): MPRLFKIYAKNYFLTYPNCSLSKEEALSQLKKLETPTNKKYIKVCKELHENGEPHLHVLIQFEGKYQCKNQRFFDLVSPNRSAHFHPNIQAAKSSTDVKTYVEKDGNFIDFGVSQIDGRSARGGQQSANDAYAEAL
# Procedure: as §1
# [10] = system: T10, Rep nickase domain of wheat dwarf virus
# T10 sequence (residues 1-137 of Rep, tag left off): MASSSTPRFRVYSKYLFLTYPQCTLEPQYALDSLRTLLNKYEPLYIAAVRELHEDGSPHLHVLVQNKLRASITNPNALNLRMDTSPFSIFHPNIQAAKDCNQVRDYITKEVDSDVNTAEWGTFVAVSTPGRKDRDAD
# Procedure: as §1
Sequence,uncleaved DNA left (log2) [1],uncleaved DNA left (log2) [2],uncleaved DNA left (log2) [3],uncleaved DNA left (log2) [4],uncleaved DNA left (log2) [5],uncleaved DNA left (log2) [6],uncleaved DNA left (log2) [7],uncleaved DNA left (log2) [8],uncleaved DNA left (log2) [9],uncleaved DNA left (log2) [10]
TCTACTC,0.136,0.0208,0.0374,-1.87,0.0868,-0.364,0.0113,0.0431,-0.0104,-0.0732
CATGACT,-0.071,-0.166,-0.339,-2.45,-0.107,-0.315,-0.36,-0.0668,-0.125,-0.161
AATGCAC,0.103,0.0684,-0.22,-0.271,0.0666,-0.853,0.109,0.0649,0.0255,0.0637
TGACAGG,0.0478,0.0183,0.246,0.825,-0.0919,0.832,0.0216,-0.0729,0.0399,0.0202
GTTCACT,0.0649,0.0303,0.318,0.659,-0.0143,1.65,0.0121,0.019,0.0438,0.111
AACCATT,0.0495,0.0332,-0.27,-2.57,0.0694,-0.772,-2.96,0.162,0.0643,0.153
TAATGGA,0.0434,0.0808,-1.9,-1.83,0.0777,-0.534,-0.203,-0.0916,0.0544,-0.217
TCATATG,-0.0711,-0.0975,-0.566,-0.744,0.0199,-1.2,0.133,-0.0604,-0.132,-0.0486
AACTGAC,-0.00545,0.0474,-0.202,0.419,0.0525,0.161,0.104,-0.00121,-0.0151,-0.00745
CATACTG,-0.171,-0.000692,-0.195,0.304,-0.139,0.596,-0.0601,-0.0219,-0.18,-0.0463
ACCGAGG,0.0552,0.0662,0.116,0.625,0.105,-0.00569,0.298,0.172,0.0595,0.0381
CGCGGAG,-0.063,0.0316,-0.562,-0.351,-0.0366,-0.6,0.165,0.0168,0.00517,-0.112
GAGGTGC,-0.0948,-0.094,-0.0886,0.0103,-0.111,-0.34,0.0167,-0.127,-0.0865,-0.153
GCTCGGC,-0.126,-0.0971,0.0224,0.368,-0.157,-0.258,-0.1,-0.0728,-0.0813,-0.104
CGAACTA,-0.0751,-0.0277,-0.129,-0.0976,0.00215,0.73,-0.153,-0.185,-0.0683,0.0729
TAATTTA,-1.58,-0.163,-3.08,-3.32,-0.13,-2.46,-2.36,-2.77,-0.234,-2.95
CTGTTCT,-1.31,-0.361,-0.0695,-1.92,-0.278,-0.696,-3.16,-0.251,-0.156,-0.181
GACTCAC,0.0976,0.113,0.209,0.518,0.0539,0.595,-0.337,0.0893,0.212,0.178
GATGGAC,-0.0195,0.0775,0.802,1.96,0.0609,2.07,0.266,0.0892,0.072,0.174
AATTAAC,-0.111,-0.0791,-0.567,-1.9,-0.071,-0.906,-0.199,-0.141,-0.123,-0.0794

Sequence,uncleaved DNA left (log2) [1],uncleaved DNA left (log2) [2],uncleaved DNA left (log2) [3],uncleaved DNA left (log2) [4],uncleaved DNA left (log2) [5],uncleaved DNA left (log2) [6],uncleaved DNA left (log2) [7],uncleaved DNA left (log2) [8],uncleaved DNA left (log2) [9],uncleaved DNA left (log2) [10]
TTTACAA,0.0687,0.17,0.285,-0.563,0.0998,0.591,0.133,0.0761,0.176,0.144
CCCGACT,-0.229,-0.142,-0.0771,-0.773,-0.132,0.405,-0.223,0.0565,-0.208,-0.166
ACCTGTG,-0.0221,0.081,-0.507,0.787,0.0977,-0.354,0.121,-0.0426,0.0826,-0.13
TCTATCT,0.0108,-0.00476,0.0372,-1.79,0.0394,-0.374,-0.63,0.0461,0.0518,0.0573
CAAAATA,-0.0703,-0.0389,-0.572,-2.67,-0.097,-0.767,-0.0988,-0.034,-0.113,-0.169
CTTTCCT,-0.92,-0.146,-0.23,-2.26,-0.0317,-0.713,-1.31,-0.157,-0.188,-0.0892
TTACATA,0.0092,0.0156,0.00452,-1.28,0.042,-0.0272,-0.0541,-0.0864,0.0158,0.103
ACGGATT,-0.14,-0.221,-0.0765,-0.736,0.000931,0.607,-0.142,-0.00653,-0.204,-0.0834
ATCTAGG,0.0824,0.0435,0.394,1.16,0.0309,0.99,0.107,0.0381,0.0176,0.0628
GCGACTT,0.102,0.244,0.223,0.774,0.0746,1.85,0.0097,0.0597,0.115,0.172
CACAACC,-0.0932,0.00145,-0.177,-2.05,-0.0133,-0.711,-0.601,-0.0185,-0.0197,0.0572
GCGTATT,-2.2,-2.02,-0.562,-1.37,-2.33,0.298,-2.57,-0.185,0.238,-0.674
CCCTACA,-0.0279,0.0785,-0.197,-2.31,0.163,-0.477,-0.0185,0.0528,0.153,0.00166
AGCGAAT,-0.00944,0.15,0.0117,0.777,0.0564,1.57,0.0978,0.218,0.0173,0.134
AGCACTC,0.0259,-0.0252,0.118,0.509,-0.0983,1.17,-0.0211,-0.0819,-0.0962,-0.0127
ACTGTGC,-0.0418,-0.0643,-0.657,-0.684,-0.136,-1.26,-0.0389,-0.0249,0.0147,-0.0565
ATCCTAG,0.0186,-0.0845,-0.689,-0.598,0.0257,-1.02,0.275,-0.061,0.0444,-0.0342
TATTCAG,-0.125,0.0721,-0.693,-0.598,0.0833,-1.24,0.177,-0.00676,0.00258,-0.0971
AGTAATT,0.0149,-0.469,0.0917,-1.77,-1.09,0.131,-3.59,-0.0193,0.222,0.101
GACCAGT,0.0215,0.0585,0.114,-0.0611,0.0127,0.115,-0.122,-0.0578,0.102,-0.00817

Sequence,uncleaved DNA left (log2) [1],uncleaved DNA left (log2) [2],uncleaved DNA left (log2) [3],uncleaved DNA left (log2) [4],uncleaved DNA left (log2) [5],uncleaved DNA left (log2) [6],uncleaved DNA left (log2) [7],uncleaved DNA left (log2) [8],uncleaved DNA left (log2) [9],uncleaved DNA left (log2) [10]
GGATCGA,-0.0444,0.0166,0.548,1.23,-0.0521,1.33,0.165,0.038,0.0626,0.158
ATGCCTT,-0.0531,-0.11,-0.133,-1.77,-0.0667,-0.413,-0.41,-0.0477,-0.0944,-0.0385
AGCTAGT,-0.286,-0.00316,-0.101,0.581,0.041,0.544,-3.37,0.118,0.000997,0.035
CGGTGGT,-0.0408,-0.215,0.0361,0.532,-0.0793,1.12,-1.06,-0.0495,-0.0835,-0.0789
ACTTTAT,-0.0871,-0.0841,-0.0378,-1.03,0.158,-0.681,-0.524,0.0779,-0.0407,0.055
TGATTTG,0.0297,-0.0454,-0.36,-0.646,0.0225,-1.05,0.18,-0.0744,-0.000803,-0.0518
ATCAAGA,0.0506,0.0824,0.098,0.0266,0.0421,-0.818,0.118,0.0942,0.0565,0.0732
CCAGCGT,-0.0133,-0.015,-0.824,-0.532,0.0798,-0.882,0.00504,0.0515,-0.00843,-0.128
GTTGGAA,0.0241,0.132,0.297,0.824,0.0693,1.81,0.13,0.163,0.0466,-0.0436
ATTGTCC,0.0464,-0.0916,-0.105,-0.518,-0.0035,-0.589,-0.00949,0.0124,-0.039,-0.0933
GGAAGCG,0.104,0.0654,-0.694,0.512,0.124,-0.422,0.169,-0.0373,0.0494,-0.00371
AGATTCA,-0.104,-0.0229,0.0618,-0.288,-0.0164,-0.0541,-0.151,-0.0835,-0.0961,-0.0762
ACCTCAA,0.0509,-0.0138,-0.0199,-0.27,0.0912,-0.411,0.0932,0.107,0.00218,0.089
ATAACTT,-0.0596,-0.055,-0.221,-2.79,0.0358,-0.518,-0.442,-0.0411,-0.125,-0.047
CTCATGC,-0.0631,-0.0353,-0.544,-0.449,-0.0981,-1.15,0.118,-0.097,0.0216,-0.114
GGATGAT,0.0206,0.21,0.722,1.67,0.0362,2.15,-0.0792,0.0053,0.0777,0.256
CTAAAGG,0.115,0.094,0.284,1.18,-0.0145,0.638,0.104,0.045,-0.0706,0.0652
TACTCGG,-0.0713,0.0242,0.452,1.33,-0.0108,1.72,0.00982,-0.00499,-0.217,-0.0345
CCACCTC,-0.0607,0.0225,0.105,-0.283,-0.108,0.213,-0.088,-0.0464,-0.0642,-0.138
AGCGCCC,-0.0345,-0.0101,0.134,0.586,-0.049,0.983,-0.0723,0.0542,-0.0297,0.0224
